In ChEMBL document CHEMBL1201862, “PubChem BioAssay data set” (2004):
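Where inhibition never reached the appropriate level, the endpoint shown equals the highest concentration tested. Otherwise, values were interpolated linearly from a five-concentration, 48-hour dose response in 96-well plates. At the GI50, growth is halved.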 Activity calls are given as the source filed them. No stated cut-off is given here; in the data, active = GI50 up to about 1.1 µM and inactive = higher.

Tested on: NCI-H322M
Assay: DTP human tumour cell line panel, 48 h

Compound	GI50
NC(=O)SCC(=O)Nc1ccc2ncccc2c1	inactive: 83.9 µM
O=C(O)CCNc1ccccc1C(=O)O	inactive: 56.5 µM
O=C(NC1CCCCC1)c1cc2ccccc2cc1O	inactive: 49.8 µM
CCN1CCC(O)(/C=C/c2ccc(C)cc2)C(C(=O)/C=C/c2ccc(C)cc2)C1 (centres undefined)	inactive: 13 µM
O=C(O)CSCc1cccc2ccccc12	inactive: 65.8 µM
COc1ccccc1NC(=S)N/N=C1\C(=O)Nc2ccccc21	inactive: > 100 µM
CCOC(=O)Cc1csc(NC(NC(=O)OCC)(C(=O)OCC)C(F)(F)F)n1 (centres undefined)	inactive: > 100 µM
CC(NC(=O)C(NC(=O)CNC(=O)OC(C)(C)C)C(C)C)C(=O)Oc1c(Cl)c(Cl)c(Cl)c(Cl)c1Cl (centres undefined)	inactive: 25.2 µM
COc1ccc2c(c1OC)C1=C(C2=O)c2cc3c(cc2CCN1)OCO3	inactive: 55.5 µM
NS(=O)(=O)c1ccc(NC(=O)N/N=C/c2ccccc2[N+](=O)[O-])cc1	inactive: 53.7 µM
CN(C)NC(=S)NC12CC3CC(CC(C3)C1)C2	inactive: > 100 µM
CCOC(=O)c1c[nH]c2cc3c(cc2c1=O)CCS3	inactive: > 100 µM
Cn1cc(C(=O)C[n+]2ccccc2)c2ccccc21	inactive: > 100 µM
O=C(Cc1ccc(Cl)cc1)Nc1ccc2oc(-c3ccccc3)nc2c1	inactive: 65 µM
O=C1c2cccnc2C(=O)c2c1nc1ccccc1c2-c1ccc2c3c(nc4ccccc42)C(=O)c2cccnc2-c13	active: 0.729 µM
CC/C(C)=C1\OC(=O)C(C)C(O)C(Cc2cccnc2)NC(=O)C(NC(=O)c2ncccc2O)C(C)OC1=O (centres undefined)	inactive: 50.7 µM
Nc1cccc(C#Cc2cccc(C#Cc3cccc(N)n3)n2)n1	inactive: > 100 µM
CC1=CC(C)C(C)N(CC2=NCCN2)c2ccccc21 (centres undefined)	inactive: 52.6 µM
O=C1C(Cl)=C(N2CCN(CCOCCO)CC2)C(=O)c2c(O)ccc(O)c21	inactive: 3.21 µM
c1ccc(/C(=N/Nc2cnccn2)c2ncccn2)cc1	inactive: 20.7 µM
COc1ccccc1/C=C(\C#N)c1ccccc1	inactive: 45.3 µM
CCOP(=O)(/C=C/n1cnc2c(=O)n(C(C)=O)c(N)nc21)OCC	inactive: > 100 µM
O=C(O)/C(O)=C1/C=C(c2ccccc2)c2ccccc21	inactive: 25.4 µM
O=C1C(Cl)C2(CC(/C=C/c3cccs3)=NN2c2cccc(S(=O)(=O)O)c2)N1c1nc2ccccc2s1 (centres undefined)	inactive: 83.6 µM

Compound	GI50
CC(C)C(Br)CC/C(CBr)=C(\Cl)CCl (centres undefined)	inactive: 14.7 µM
Cc1cc(C)c(C2=NO[C@@H]3C(=O)N(c4ccc(Cc5ccc(N6C(=O)[C@H]7C(c8c(C)cc(C)cc8C)=NO[C@H]7C6=O)cc5)cc4)C(=O)[C@H]23)c(C)c1	inactive: > 100 µM
C=CCNC(=O)N(CCC)CCCCC(NC(C)=O)C(=O)NCc1ccccc1 (centres undefined)	inactive: > 100 µM
Cc1ccc(OCC2OC(n3cnc4c(Cl)nc(N)nc43)CC2Oc2ccc(C)cc2)cc1 (centres undefined)	inactive: 31.8 µM
CN(C)CCNc1ccc(NCC[N+](C)(C)Cc2ccc([N+](=O)[O-])cc2)c2c1C(=O)c1ccccc1C2=O	inactive: > 25 µM
CCN1CCC(O)(c2ccc([N+](=O)[O-])cc2)C(C(=O)c2ccc([N+](=O)[O-])cc2)C1 (centres undefined)	inactive: > 100 µM
O=[N+]([O-])c1ccc(-c2nc3cc(Cl)ccc3[nH]2)cc1	inactive: > 100 µM
COc1cc2c(c(OC)c1OC)-c1[nH]ncc1CC2	inactive: > 100 µM
CC(=O)c1ccc2c(c1)oc(=O)n2CCN1CCCCC1	inactive: > 100 µM
COc1ccc(C2c3c(n(C)c(=O)n(C)c3=O)OC(N(C)C)(N(C)C)C2(F)F)cc1 (centres undefined)	inactive: > 100 µM
COc1ccccc1/C=C1\S/C(=N/Nc2nc(C)c(C(C)=O)s2)NC1=O	inactive: 68.4 µM
CC(C)(C)NNc1c([N+](=O)[O-])cnn(-c2ccccc2)c1=O	inactive: 11.1 µM
CCCc1nc(NC#N)nc(C(=O)NC23CC4CC(CC(C4)C2)C3)c1C	inactive: > 100 µM
CCOC(=O)/C=C1\CCCC12OCCO2	inactive: > 100 µM
CC1(C)OC2OC(COC(=O)c3ccc(C#N)cc3)C3OC(C)(C)OC3C2O1 (centres undefined)	inactive: > 75 µM
O=c1ccn(C/C=C/c2ccccc2)c(=S)n1C/C=C/c1ccccc1	inactive: 96.8 µM
CC(C)(C)[Si](OC1CC(n2cnc3c(N)ncnc32)OC1CO)(c1ccccc1)c1ccccc1 (centres undefined)	inactive: 19.5 µM
O=C1/C(=C\c2cccs2)Oc2ccccc21	inactive: > 100 µM
CC1CC(N2CCOCC2)=Nc2ccccc2N1C (centres undefined)	inactive: > 100 µM
CCOC1CCN(C(=O)c2ccccc2)O1 (centres undefined)	inactive: > 10 µM
O=[N+]([O-])c1cc(Cl)ccc1S(=O)(=O)N1CCCc2cc(Cl)ccc21	inactive: 43.4 µM
O=C(N/C(=C/c1cccc([N+](=O)[O-])c1)c1nc2cc(Cl)ccc2[nH]1)c1ccccc1	inactive: 16.4 µM
CC(C)(CN1CCCCC1)C(=O)CC(SCCN)c1ccc(Cl)cc1 (centres undefined)	inactive: 1.99 µM
OCc1cc2c(cn1)[nH]c1ccc(NCc3ccccc3)cc12	inactive: 23.7 µM

Compound	GI50
c1ccc(SCCP(CCP(c2ccccc2)c2ccccc2)c2ccccc2)cc1 (centres undefined)	inactive: 24.9 µM
CC(=O)CC(O)(C(F)(F)Cl)C(F)(Cl)Cl (centres undefined)	inactive: > 10 µM
O=C1O/C(=C\c2ccc(O)c(Br)c2)C(c2ccc(O)c(Cl)c2)=C1Br	inactive: 19.9 µM
CSc1nc2c(c(N3CCOCC3)n1)C(O)n1c(nc3ccccc31)S2 (centres undefined)	inactive: > 100 µM
O=C1C2c3[nH]c4ccccc4c3C3CCSCC3C2C(=O)N1c1ccccc1 (centres undefined)	inactive: > 100 µM
O=P1(Cc2ccccc2)c2ccccc2-c2ccccc21	inactive: 14.7 µM
CCCCN(CCCC)C(=O)C(=O)C(C(=O)C(=O)OC)c1nc2ccccc2o1 (centres undefined)	inactive: > 100 µM
Cc1ccc2c3c(cnc2n1)C(=O)OCCN3C	inactive: > 100 µM
N#CC1(C#N)C2CCCCC23OC(=N)C1(C#N)C(c1ccccc1)O3 (centres undefined)	inactive: 61.9 µM
O=CNc1ccc(S(=O)(=O)c2ccc(NC=O)cc2)cc1	inactive: > 100 µM
C/C=N\n1c(C)c(C#N)c(C#N)c1N	inactive: > 100 µM
CCCCCCCCCCCCCCCCCC(=O)OCC(COC(=O)CCCN)OC(=O)CCCN (centres undefined)	inactive: 17.4 µM
COC(=O)CCC(NC(=S)N/N=C/c1cccs1)C(=O)OC (centres undefined)	inactive: > 100 µM
NC(=O)CCC(Nc1c2ccccc2[n+]([O-])c2ccccc12)C(=O)O (centres undefined)	inactive: > 100 µM
C/C(=C/CC[C@](C)(OC1OC(CO)C(O)C(O)C1O)[C@H]1CC[C@]2(C)[C@@H]1CC[C@@H]1[C@@]3(C)CC[C@H](O)C(C)(C)[C@@H]3C[C@H](O)[C@]12CO)CO (some centres undefined)	inactive: > 100 µM
C/C(=N\NC(=S)N1CCC(C2CCN(C(=S)N/N=C(\C)c3ccccn3)CC2)CC1)c1ccccn1	inactive: > 100 µM
CC[C@H](O)[C@H](C)C=C1SCCCS1	inactive: > 100 µM
C[S+](C)C1(c2ccccc2)C(=O)c2ccccc2C1=O	inactive: > 100 µM
Nc1c(Cl)c([N+](=O)[O-])cc2c1OCCCCO2	inactive: > 100 µM
O=C(CCCN1CCC2(CC1)CC(=O)N(N1CCCCCC1)C2=O)c1ccccc1	inactive: > 100 µM
CC(C)C1=C(O)C(=O)C2=C(C1=O)C(OC=O)C(O)C1C(C)(C)CCCC21C (centres undefined)	inactive: 10.2 µM
c1ccc2c(c1)nnn1c3cnccc3nc21	inactive: 26 µM
CC(C)c1cccc(C(C)C)c1NC(=S)Nc1ccccc1	inactive: > 100 µM
CCOC(=O)C(=Cc1cccnc1C)C(=O)OCC	inactive: 10.2 µM

Compound	GI50
CCC(/C(=N/NC(=O)C[N+](C)(C)C)c1ccccc1)C1OC(=O)c2ccccc21 (centres undefined)	inactive: > 100 µM
O=S(=O)(CC(O)C(Cl)(Cl)Cl)NNc1ccccc1 (centres undefined)	inactive: > 100 µM
COC(=O)C(CC(=O)c1c[nH]c2ccccc12)c1c[nH]c2ccccc12 (centres undefined)	inactive: 20.3 µM
CC1(O)CCC2(C#N)CCC1C2O (centres undefined)	inactive: > 100 µM
CSc1nc(SC)c2c(C)cn(Cc3ccccc3)c2n1	inactive: 64.1 µM
CCC1OC2C(CC=C(C)C)=C3OC(C)(O)C(C)(CC)C(OC(=O)c4ccccc4)C3=C3OC(=O)C=C1C32 (centres undefined)	inactive: 46.8 µM
COc1ccc2c(C)cc(N/N=C/c3sccc3C)nc2c1	active: 0.217 µM
CC(C)c1ccccc1SC1CC(=O)CC(Sc2ccccc2C(C)C)C12O[C@H](c1ccccc1)[C@@H](c1ccccc1)O2 (some centres undefined)	inactive: > 100 µM
CN1CCN(C)C12C=CC=CC21CC1	inactive: > 100 µM
CO[C@@H]1O[C@H](C(=O)c2ccccc2)[C@H]2OC(C)(C)O[C@@H]12	inactive: > 100 µM
COc1cccc(N2C(=O)[C@H]3CC(C)c4c([nH]c5ccccc45)[C@H]3C2=O)c1 (some centres undefined)	inactive: 91.6 µM
COc1ccc(C(=O)CC(c2ccccc2)[C@H]2C(c3ccc(OC)cc3)=Nc3c(nc(SC)n(C)c3=O)NC2c2ccccc2)cc1 (some centres undefined)	inactive: > 100 µM
O=C1C=C(Nc2ccc(Br)cc2)c2ccccc2C1=O	inactive: 14.4 µM
CCOC(=O)CP(=S)(S)c1ccccc1 (centres undefined)	inactive: > 100 µM
CC1(C)[C@@H](Cn2cnc3c(O)nc(N)nc32)CC[C@@]1(C)CO	inactive: > 100 µM
COC(C(=O)NCCCCNC(=O)C(OC)c1ccccc1)c1ccccc1 (centres undefined)	inactive: > 100 µM
C=C(C)C12OC1[C@@]1(C)C(=CC2=O)CCC(O)[C@@H]1C (some centres undefined)	inactive: 2.86 µM
COC1C(O)C(C)OC(O[C@@H]2C[C@H]3CC[C@@H]4[C@H](CC[C@]5(C)[C@@H](C6=CC(=O)OC6)CC[C@]45O)[C@@]3(C)[C@H](O)C2)C1O (some centres undefined)	active: 0.0646 µM
CSC[S+]([O-])C[C@H](CO)NC(=O)/C=C/c1c(C)[nH]c(=O)[nH]c1=O (some centres undefined)	active: 0.521 µM
CCCCCCCCCC[C@@H](O)[C@H]1CC[C@@H]([C@H]2CC[C@H]([C@H](O)CCCCCCCCCC[C@@H]3CC(CC(C)=O)C(=O)O3)O2)O1 (some centres undefined)	inactive: 23 µM
COc1cc2c(cc1OCCCN1CCOCC1)N=C[C@@H]1CCCN1C2=O	inactive: 26.1 µM
O=C1Cc2c([nH]c3cc(Br)ccc23)-c2ccccc2N1	inactive: 12.1 µM
